# Measurements published in PubChem BioAssay AID485344 (National Center for Advancing Translational Sciences (NCATS), 2010).
# The campaign covered roughly 340,000 compounds. About 6,900 (2%) were called active. Rule as the data show it: active = inhibition above about 30%; inactive = below that, where a call was filed. Only a part is listed here, and it is no random draw. The source gives no active or inactive call for entries shown without one.
# Target: D(2) dopamine receptor (Homo sapiens) (UniProt P14416)
# UniProt P14416, sequence (P14416 whole entry, looked up): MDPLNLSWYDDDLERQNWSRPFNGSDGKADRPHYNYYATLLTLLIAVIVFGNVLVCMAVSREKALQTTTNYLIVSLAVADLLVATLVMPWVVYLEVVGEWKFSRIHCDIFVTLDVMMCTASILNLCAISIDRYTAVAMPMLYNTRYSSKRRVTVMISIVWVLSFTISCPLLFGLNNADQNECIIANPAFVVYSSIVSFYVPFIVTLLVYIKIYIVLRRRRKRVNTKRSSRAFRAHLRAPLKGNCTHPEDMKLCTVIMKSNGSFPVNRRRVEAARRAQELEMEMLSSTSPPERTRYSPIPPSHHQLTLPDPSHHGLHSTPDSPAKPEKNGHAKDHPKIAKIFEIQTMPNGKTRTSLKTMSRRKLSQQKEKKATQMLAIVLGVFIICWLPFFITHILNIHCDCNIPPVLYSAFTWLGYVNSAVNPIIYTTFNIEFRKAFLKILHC
# Experiment: HTS Assay for Allosteric Antagonists of the Human D2 Dopamine Receptor: Primary Screen for Antagonists; also: 0% is about no effect
# Conditions: HEK293 TREx D2 cells, calcium flux, dopamine EC80; at 10 µM; stronger effect = higher value
# Procedure, shortened: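 Cells plated overnight at 30 C with tetracycline; no-wash calcium dye, 30–90 min RT; 10 s baseline; compound pinned; 180 s read; EC80 dopamine added; another 180 s read.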
row,SMILES,inhibition
1,CCC(=O)C1=C(c2ccc(F)cc2)N(C(=O)CC)n2cnnc2S1,10.4%
2,CCCOc1ccc(-c2cccc(NS(=O)(=O)c3ccccc3)c2)nn1,-8.95%
3,COc1ccccc1N1CCN(CC(O)c2ccc3cc[nH]c3c2)CC1 (configuration not stated),active: 59.6%
4,Cc1ccc2cccc(NC(=O)c3ccc(OC(C)C)cc3)c2n1,5.78%
5,O=C(NCc1ccc2c(c1)OCO2)c1ccc2c(c1)N(Cc1ccccc1F)C(=O)c1ccccc1S2,-15.7%
6,CCc1ccccc1NC(=O)CN(c1ccccc1)S(=O)(=O)c1ccsc1C(=O)OC,9.19%
7,CCc1ccccc1NC(=O)Cn1cc(S(=O)(=O)N2CCCC2)c(S(=O)(=O)N2CCCC2)c1,6.11%
8,O=C(c1ccco1)N(Cc1cccnc1)c1nc2c(F)cc(F)cc2s1,14.3%
9,COc1ccccc1NC(=O)CSc1nncn2c1cc1sccc12,8.95%
10,Cc1ccccc1CNC(=O)c1ccc2nc(SCc3ccc(F)cc3)n(C)c2c1,2.71%
11,CCOCCCNC(=O)C(c1ccccc1)N(Cc1ccc2c(c1)OCO2)C(=O)c1ccc(NC(C)=O)cc1 (configuration not stated),4.8%
12,Cc1c(C(=O)NCCN(C)C)oc2ccc(S(=O)(=O)N3CCC4(CC3)OCCO4)cc12,active: 33.4%
13,CCc1ccc(NC(=O)CSc2nccn2-c2ccc(F)cc2)cc1,16.2%
14,COc1ccc(N2CC(NC(=O)/C=C\c3ccc4c(c3)OCO4)CC2=O)cc1OC (configuration not stated),-4.89%
15,COc1ccc(NC(=O)CN(C)S(=O)(=O)c2ccc3c(c2)CCCN3C(C)=O)cc1,-11.8%
16,CCSc1nc2n(n1)C(c1ccc(Cl)cc1Cl)C(C(=O)Nc1ccccc1C)=C(C)N2 (configuration not stated),-23.1%
17,CCCCOc1ccc(C(=O)N(Cc2ccc(N(C)C)cc2)Cc2ccco2)cc1,-1.96%
18,Cc1ccc(-n2ccn(CC(=O)NCCc3ccccc3)c(=O)c2=O)cc1C,14.3%
19,CC(C)(C)c1ccc(-c2nc(NC(=O)CSc3ncnc4sc5c(c34)CCCC5)ns2)cc1,-15%
20,Cc1ccc(-n2ncc3c(NCc4ccccc4)ncnc32)cc1Cl,-4.67%
21,Cc1ccc(CN2CCN(c3ccccc3)CC2)o1,active: 69.9%

row,SMILES,inhibition
1,COc1cccc(CN2C(=O)c3ccccc3Sc3ccc(C(=O)OCc4ccco4)cc32)c1,9.75%
2,Cc1cccc(NC(=O)CSc2nc3ccc(NC(=O)c4ccccc4)cc3s2)c1,1.6%
3,CC1=C(c2ccc(Cl)cc2)S(=O)(=O)N=C1N1CCN(c2cccc(C)c2C)CC1,8.45%
4,Fc1ccc(NCc2ccccc2-c2nnc(-c3ccccc3Cl)o2)cc1,4.56%
5,CCOc1ccc(-c2cc3nc(C4CCN(C(=O)OC(C)(C)C)CC4)c(C(=O)Nc4cccc(CC)c4)cn3n2)cc1,-0.288%
6,CC(=O)N1c2ccc(S(=O)(=O)N3CCCCCC3)cc2CC1C(=O)NCc1cccc(C)c1 (configuration not stated),7.38%
7,COc1cc(NC(=O)Cn2c(=O)cc(C)c3c(C)nn(-c4ccc(C)cc4)c32)cc(OC)c1,-3.41%
8,Cc1ccc(CNc2nnc(C)c3nnn(Cc4ccc(F)cc4)c23)cc1,12.6%
9,O=C(NCCc1csc(-c2cccnc2)n1)c1cccc(Cl)c1,14.4%
10,Cc1ccc2ncc(C(=O)c3ccc(C)c(C)c3)c(S(=O)(=O)c3ccc(F)cc3)c2c1,-12.6%
11,CCOc1ccc(CC(=O)NCCc2sc3nc(-c4ccc(F)cc4)nn3c2C)cc1,-23%
12,Cc1nc(SCc2cccc(Cl)c2)nc2c1CCCC2,11.3%
13,Cc1ccccc1Cn1c(SCc2ccc(C(=O)NC3CCCCC3)cc2)nc2ccncc21,-15.4%
14,CC(C)N(Cc1nc(-c2ccc(Cl)cc2)no1)C(=O)c1ccc(C(C)(C)C)cc1,-7.58%
15,Cc1cc(Cl)ccc1NS(=O)(=O)c1c(C(=O)N2CCC(C)CC2)c(C)n(C)c1C,2.42%
16,CC1CCCN(c2nc3c(-c4ccc(Cl)cc4)nnn3c3ccccc23)C1 (configuration not stated),-7.79%
17,Cc1ccc(-c2csc(-c3cc4c([nH]c3=O)CC(c3ccccc3)CC4=O)n2)cc1 (configuration not stated),10.9%
18,N#Cc1c(N)sc(=S)c2c1CCN(Cc1ccccc1)C2,active: 31.6%
19,COc1ccc2oc(=O)c(-c3nnc(-c4ccc(C)cc4)o3)cc2c1,-6.57%
20,CCN(CC)S(=O)(=O)c1ccc2c(c1)N(CC(=O)NCc1ccccc1)C(=O)C1CCCCN21 (configuration not stated),-14.4%
21,Cc1ccc(N(C(=O)c2sc(C)nc2C)C(C(=O)NCc2ccco2)c2ccccc2)cc1 (configuration not stated),active: 43.6%

row,SMILES,inhibition
1,Cc1cc2c(cc1S(=O)(=O)Nc1ccc(OC(F)(F)F)cc1)OCC(=O)N2,20.9%
2,O=C(CSc1nc2ccc(N3CCOCC3)cc2c(=O)n1CCc1ccccc1)NCC1CCCO1 (configuration not stated),active: 40.6%
3,NC(=O)c1c(NC(=O)CS(=O)(=O)c2ccc(Cl)cc2)sc2c1CCCCC2,14.1%
4,CC(C)NCCOCCOc1ccc(Cl)cc1Br,active: 66.9%
5,Cc1ccc(Nc2c(-c3ccc(Br)o3)nc3ccccn23)cc1,18.5%
6,COc1ccc(S(=O)(=O)NCc2nc3nc(C)cc(C)n3n2)cc1,11.5%
7,CCOc1ccc(NC(=O)CSC2=Nc3ccccc3C3=NC(CCC(=O)NCc4ccco4)C(=O)N23)cc1 (configuration not stated),-27.8%
8,Cc1ccc(Cl)cc1N1CCN(C(=O)Cn2ncc3c4ccccc4n(C)c3c2=O)CC1,-7.29%
9,CCC(=O)Oc1c(Sc2ccc(Cl)cc2)c(C)nn1-c1ccccc1,-0.176%
10,Cc1ccc(-c2nc(CS(=O)(=O)CC(=O)Nc3ccc(Br)cc3F)c(C)o2)cc1,-9.37%
11,Cc1ccccc1NC(=O)c1c(C)oc2ccc(O)c(CN3CCOCC3)c12,8.38%
12,CCn1c(=O)c2cc(C(=O)NCCCN3CCN(C)CC3)sc2c2ccccc21,-0.773%
13,COc1ccc(-c2nc3c(c(SC)n2)Cc2c(CO)cnc(C)c2O3)cc1,13%
14,CN1CCN(CCOCCOc2ccc(Br)cc2Cl)CC1,active: 30.7%
15,O=C(CSc1n[nH]c(-c2ccccc2Cl)n1)NCc1ccc(F)cc1,-17.6%
16,O=C(CCC(=O)c1ccc(F)cc1)Nc1ccc(Cl)cc1,-3.31%
17,O=C(c1ccc2c(c1)N(Cc1ccccc1F)C(=O)c1ccccc1S2(=O)=O)N1CCN(c2ccccn2)CC1,3.17%
18,CCn1cc(S(=O)(=O)c2cccc(C)c2)c(=O)c2cc(F)c(N3CCCC(C)C3)cc21 (configuration not stated),1.43%
19,CCOc1ccc(CNC(=O)C2CCCCN2S(=O)(=O)c2ccc(F)cc2)cc1OC (configuration not stated),-5.92%
20,CC(C)c1ccc(NC(=O)c2cc(S(=O)(=O)N(C)C3CCCCC3)ccc2F)cc1,-6.38%
